From patent US20050050587A1, “Inducers of plant disease resistance” (priority 2003, published 2005)
The name of at least one read-out is uncertain.

System: PR-1a protein
Assay: Induction and quantification of PR-1a protein after leaf infiltration of tobacco
Type: in vivo, Nicotiana tabacum (Xanthi nc)
Settings: 96 h post infiltration, compared to 1 mM SA
Experimental: Tobacco (Nicotiana tabacum) plants (Xanthi nc) were grown in Promix PGX at 25 C and a 16/8 h photoperiod. Plants were fed a 1 g/L concentration of 20-20-20 (N-P-K fertilizer) twice a week. The Xanthi-nc variety carries the N-gene for resistance to TMV.
For evaluating pathogenesis-related protein induction, test compounds were dissolved in ethanol and dispersed in water (0.1% v/v ethanol). The most recently fully-expanded leaf on each plant was selected for infiltration. Infiltration was accomplished using a 5 mL disposable syringe (without needle). The solution was forced through the stomates of the abaxial surface of the leaf. Treatment solution was infiltrated into the leaf until the leaf was saturated.
All harvests were performed 96 hours after infiltration unless indicated. Briefly, treated leaves were de-veined, the remaining tissue was cut into 1 cm×1 cm pieces and vacuum-infiltrated with ice-cold extraction buffer. […] The extracellular fluid containing the acidic PR-1a protein was collected by centrifugation at 1000 g for 10 minutes at 4° C. After collection, samples were stored at −80° C. Protein concentrations of extracellular fluids were determined by Bradford dye reagent (BioRad, Richmond, Calif.) used BSA as a standard. Eight to ten μg of each protein sample were analyzed by electrophoresis on 14% Native Polyacrylamide gels (14% pre-cast Tris-Glycine gels; Invitrogen, Carlsbad, Calif.). Gels were stained with colloidal blue staining reagent (Invitrogen), and PR-1a protein was quantitated using a Model GS-710 densitometer (BioRad).

[1] = 1 mM picolinic acid derivatives, which equals 1

| Compound | Mean PR Induction (relative induction of PR-1a protein) (which equals 1) | Mean PR Protein Induction (1 mM, which equals 1 (Table 5)) | further results |
| --- | --- | --- | --- |
| O=C(O)c1c(F)ccc(F)c1F [2,3,6-Trifluorobenzoic acid] | – | – | Mean PR Induction (relative induction of PR-1a protein) (1 mM, which equals 1): 0.02 |
| O=C(O)c1c(F)cccc1F [2,6-Difluorobenzoic acid] | – | – | Mean PR Induction (relative induction of PR-1a protein) (1 mM, which equals 1): 0 |
| O=C(O)c1ccccc1F [2-Fluorobenzoic acid] | 0.06 | – | – |
| O=C(O)c1c(O)c(Cl)cc(Cl)c1Cl [3,5,6-Trichlorosalicylic acid] | – | 0.25 | Mean PR Induction (relative induction of PR-1a protein) (1 mM, which equals 1): 0.25 |
| O=C(O)c1cc(Br)cc(Br)c1O [3,5-Dibromosalicylic acid] | – | – | Mean PR Induction (relative induction of PR-1a protein) (1 mM, which equals 1): 0.25 |
| O=C(O)c1c(O)c(Cl)cc(Cl)c1O [3,5-Dichloro-6-hydroxysalicylic acid] | – | 1.41 | Mean PR Induction (relative induction of PR-1a protein) (1 mM, which equals 1): 1.41 |
| O=C(O)c1cc(Cl)cc(Cl)c1O [3,5-Dichlorosalicylic acid, reference compound] | – | 1.81 | Mean PR Induction (relative induction of PR-1a protein) (1 mM, which equals 1): 1.81 |
| O=C(O)c1cc(F)cc(F)c1O [3,5-Difluorosalicylic acid] | – | 3.83 | Mean PR Induction (relative induction of PR-1a protein) (1 mM, which equals 1): 3.83 |
| Nc1cccc(C(=O)O)c1O [3-Aminosalicylic acid] | 0.54 | – | – |
| O=C(O)c1cc(F)cc(Cl)c1O [3-Chloro-5-fluorosalicylic acid] | – | 1.70 | Mean PR Induction (relative induction of PR-1a protein) (1 mM, which equals 1): 1.70 |
| O=C(O)c1cc(Cl)cc(F)c1O [3-Fluoro-5-chlorosalicylic acid] | – | 1.70 | Mean PR Induction (relative induction of PR-1a protein) (1 mM, which equals 1): 1.46 |
| O=C(O)c1cccc(F)c1O [3-Fluorosalicylic acid] | 2.13 | 2.13 | – |
| O=Cc1cccc(C(=O)O)c1O [3-Formylsalicylic acid] | 0.06 | – | – |
| O=C(O)c1cccc(O)c1O [3-Hydroxylsalicylic acid] | 0 | – | – |
| O=C(O)c1ncccc1O [3-Hydroxypicolinic acid] | – | – | Mean PR Protein Induction [1]: 1.56 |
| CC(C)c1cccc(C(=O)O)c1O [3-Isopropylsalicylic acid] | 0 | – | – |
| COc1cc(Cl)cc(C(=O)O)c1O [3-Methoxy-5-chlorosalicylic acid] | – | – | Mean PR Induction (relative induction of PR-1a protein) (1 mM, which equals 1): 0.15 |
| COc1cccc(C(=O)O)c1O [3-Methoxysalicylic acid] | 0.49 | 0.49 | – |
| Cc1cccc(C(=O)O)c1O [3-Methylsalicylic acid] | 0.22 | – | – |
| O=C(O)c1cccc([N+](=O)[O-])c1O [3-Nitrosalicylic acid] | 0.27 | – | – |
| O=C(O)c1cccc(-c2ccccc2)c1O [3-Phenylsalicylic acid] | 0 | – | – |

| Compound | Mean PR Induction (relative induction of PR-1a protein) (which equals 1) | Mean PR Protein Induction (1 mM, which equals 1 (Table 5)) | further results |
| --- | --- | --- | --- |
| O=C(O)c1ccc(F)cc1O [4-Fluorosalicylic acid] | 0.83 | 0.83 | – |
| O=C(O)c1ccc(O)cc1O [4-Hydroxylsalicylic acid] | 0 | – | – |
| COc1ccc(C(=O)O)c(O)c1 [4-Methoxysalicylic acid] | 0.17 | 0.17 | – |
| Cc1ccc(C(=O)O)c(O)c1 [4-Methylsalicylic acid] | 0.05 | – | – |
| Nc1ccc(O)c(C(=O)O)c1 [5-Aminosalicylic acid] | 0 | – | – |
| O=C(O)c1cc(Br)ccc1O [5-Bromosalicylic acid] | 0.41 | – | – |
| O=C(O)c1cc(Cl)ccc1O [5-Chlorosalicylic acid, reference compound] | 1.07 | 1.07 | – |
| N#Cc1ccc(O)c(C(=O)O)c1 [5-Cyanosalicylic acid] | 0.85 | – | – |
| O=C(O)c1cc(F)ccc1O [5-Fluorosalicylic acid] | 1.60 | 1.60 | – |
| O=Cc1ccc(O)c(C(=O)O)c1 [5-Formylsalicylic acid] | 0 | – | – |
| O=C(O)c1cc(O)ccc1O [5-Hydroxylsalicylic acid] | 0 | – | – |
| O=C(O)c1cc(I)ccc1O [5-Iodosalicylic acid] | 0 | – | – |
| COc1ccc(O)c(C(=O)O)c1 [5-Methoxysalicylic acid] | 0.12 | 0.12 | – |
| O=C(O)c1cc([N+](=O)[O-])ccc1O [5-Nitrosalicylic acid] | 0.15 | – | – |
| O=C(O)c1c(O)cccc1F [6-Fluorosalicylic acid] | 0.29 | 0.29 | – |
| O=C(O)c1c(O)cccc1O [6-Hydroxylsalicylic acid] | 0.86 | – | – |
| COc1cccc(O)c1C(=O)O [6-Methoxysalicylic acid] | 0.31 | 0.31 | – |
| CC(=O)Oc1ccccc1C(=O)O [Acetylsalicylic acid, reference compound] | 1.68 | – | – |
| O=C(O)c1ccccn1 [Picolinic Acid] | – | – | Mean PR Protein Induction [1]: 0 |
| O=C(O)c1cccc[n+]1[O-] [Picolinic acid N-Oxide] | – | – | Mean PR Protein Induction [1]: 0.51 |
| NC(=O)c1ccccc1O [Salicylamide] | 0 | – | – |
